According to PubChem BioAssay AID504332 (National Center for Advancing Translational Sciences (NCATS), 2011):
The whole screen tested about 350,000 compounds, of which about 31,000 (8.9%) were called active. Inconclusive results, whose numbers are uncertain, are shown with a selection of clear calls. The call rests on the fitted dose curve; in most records, active means well fitted inhibition curve with a large enough effect; inconclusive means small, poorly fitted or top-dose-only effect; inactive means no such curve, though single readings can be large or run the other way. A potency beside an inconclusive call is a rough fit, not a confirmed value.
Further: nearly all actives have a fitted effect of over 75% in size.
On the % scale 0 is the no-effect control and ±100 the full control effect; potency means the concentration at half of the fitted maximal effect; tags describe the fitted curve by direction and shape.

Each compound was assayed against Histone-lysine N-methyltransferase EHMT2 (Homo sapiens) (UniProt Q96KQ7) (assay: qHTS Assay for Inhibitors of Histone Lysine Methyltransferase G9a). Conditions: G9a H3K9 monomethylation, AlphaScreen, 2 h; activity, negative = inhibition: at 59 µM (top of the series) unless noted.
Chain of UniProt Q96KQ7 (Q96KQ7 whole entry, looked up): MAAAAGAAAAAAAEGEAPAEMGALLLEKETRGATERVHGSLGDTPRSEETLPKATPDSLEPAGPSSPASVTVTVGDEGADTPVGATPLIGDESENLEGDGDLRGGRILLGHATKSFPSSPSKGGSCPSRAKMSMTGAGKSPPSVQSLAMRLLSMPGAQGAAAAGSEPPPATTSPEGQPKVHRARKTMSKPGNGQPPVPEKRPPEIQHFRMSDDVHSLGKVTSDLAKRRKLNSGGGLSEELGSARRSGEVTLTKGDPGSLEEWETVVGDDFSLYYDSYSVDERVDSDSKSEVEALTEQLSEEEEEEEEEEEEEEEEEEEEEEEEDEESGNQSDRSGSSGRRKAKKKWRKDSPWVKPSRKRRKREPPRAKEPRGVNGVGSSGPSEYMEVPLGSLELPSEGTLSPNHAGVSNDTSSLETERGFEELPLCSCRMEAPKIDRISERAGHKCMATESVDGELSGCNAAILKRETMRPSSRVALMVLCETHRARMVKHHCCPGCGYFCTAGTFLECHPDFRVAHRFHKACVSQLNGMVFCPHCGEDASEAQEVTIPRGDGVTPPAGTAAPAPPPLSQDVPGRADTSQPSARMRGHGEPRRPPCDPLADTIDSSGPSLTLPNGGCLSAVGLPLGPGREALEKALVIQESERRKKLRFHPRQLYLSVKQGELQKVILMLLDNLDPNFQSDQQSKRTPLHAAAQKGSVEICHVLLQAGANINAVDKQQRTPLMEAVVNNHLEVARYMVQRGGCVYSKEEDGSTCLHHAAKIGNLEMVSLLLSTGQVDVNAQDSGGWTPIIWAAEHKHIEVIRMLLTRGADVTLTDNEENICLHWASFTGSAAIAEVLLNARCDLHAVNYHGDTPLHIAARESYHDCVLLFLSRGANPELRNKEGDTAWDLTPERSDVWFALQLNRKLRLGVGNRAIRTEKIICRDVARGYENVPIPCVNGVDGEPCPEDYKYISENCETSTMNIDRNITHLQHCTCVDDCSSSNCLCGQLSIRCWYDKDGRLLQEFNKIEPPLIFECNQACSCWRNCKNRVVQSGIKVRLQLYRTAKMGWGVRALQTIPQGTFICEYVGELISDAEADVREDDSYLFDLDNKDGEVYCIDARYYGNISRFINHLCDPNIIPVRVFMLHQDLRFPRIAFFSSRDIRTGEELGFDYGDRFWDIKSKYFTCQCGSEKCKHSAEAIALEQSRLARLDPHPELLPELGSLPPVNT
Outline: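 Enzyme 20 nM + cpd, 15 min RT; add b-H3K9 pep 500 nM / SAM 20 uM; 2 h RT; anti-H3K9me1 Ab 0.5 ug/mL + SA donor / anti-rabbit acceptor beads 20 ug/mL each, 10 min; AlphaScreen read.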
`CC(=O)Nc1ccc(NC(=O)CSc2nnc(NC(=O)c3ccc(Br)o3)s2)cc1` was tested, and the Potency was active: 15.8 µM.
In the case of `CCC(=O)Nc1cccc(NC(=O)c2ccc3c(c2)OCCO3)c1`, the Potency is reported as inconclusive: 0.631 µM [inhibitor, full curve, poor fit].
`O=C(N/N=C\c1cc(Br)c(Br)o1)C1COc2ccccc2O1` (stereo unspecified) was tested, and the Potency was inconclusive: 39.8 µM [inhibitor, partial curve, poor fit].
In the case of `Cn1c(CNC(=O)c2ccc(Cl)c(Cl)c2)nnc1SCC(=O)Nc1sc2c(c1C#N)CCCC2`, the Potency is reported as inconclusive: 89.1 µM [inhibitor, single point].
For `COc1ccc(CCN(C(=O)/C=C/C(=O)O)C2CC(=O)N(c3ccccc3)C2=O)cc1` (stereo unspecified), the “activity, negative = inhibition” value was inactive: -28.8% [at 102 µM].
For `C#Cc1ccc(CN2CCC(Oc3cc(C(=O)NC4CC4)ccc3OC)CC2)cc1`, the activity, negative = inhibition was inactive: 13% [at 12.7 µM].
With `CCOc1ccc(-n2c(C)cc(C(=O)NS(=O)(=O)c3ccc(C)cc3)c2C)cc1` the Potency was inconclusive: 89.1 µM [inhibitor, single point].
With `Cc1cccc(C)c1NC(=O)CN(C)C(=O)c1cccc(-n2cccc2)c1` the Potency was active: 50.1 µM.
`S=c1[nH]nc(C2CCCCC2)n1/N=C/c1cccc(Br)c1` was tested, and the Potency was active: 79.4 µM.
With `CCN1CCCC1CNC(=O)c1cc2ccc(OC)cc2[nH]1` (stereo unspecified) the Potency was inconclusive: 79.4 µM [inhibitor, single point].
For `CC(C)c1ccc(C(=O)Nc2cccnc2)cc1`, the Potency was inconclusive: 28.2 µM [inhibitor, partial curve, poor fit].
In the case of `Cc1ccc(-n2[nH]c(C)c(C=Nc3cc(C)ccn3)c2=O)cc1`, the Potency is reported as inconclusive: 31.6 µM [inhibitor, single point].
For `O=c1c2c(-c3cccc([N+](=O)[O-])c3)ccnc2[nH]n1-c1ccccc1`, the Potency was inconclusive: 89.1 µM [inhibitor, single point].
`Cc1cc(C)c(C#N)c(SCC(=O)Nc2ccc(S(=O)(=O)Nc3onc(C)c3C)cc2)n1` was tested, and the Potency was inconclusive: 79.4 µM [inhibitor, single point].
With `Cc1nn(-c2ccc(N3CCCC3)nn2)c(C)c1CCC(=O)Nc1ccccc1` the “activity, negative = inhibition” value was inactive: 8.82%.
With `COCCN(C(=O)CN1CCc2ccccc21)c1c(N)n(Cc2ccccc2)c(=O)[nH]c1=O` the Potency was inconclusive: 35.5 µM [inhibitor, single point].
In the case of `O=C(N1CCOCC1)N1c2ccccc2CC(N2CCOCC2)c2ccccc21` (stereo unspecified), the Potency is reported as inconclusive: 1 µM [inhibitor, full curve, poor fit].
`Cc1ccc(C23CC4CC(CC(NC(=O)NCCN(C)C)(C4)C2)C3)cc1` was tested, and the Potency was inconclusive: 39.8 µM [inhibitor, single point].
With `CN1C(=O)C(CC(=O)Nc2ccc(Cl)cc2)N(Cc2ccco2)C1=S` (stereo unspecified) the Potency was active: 44.7 µM.
In the case of `CC(C)c1ccc(NC(=O)c2cc(S(=O)(=O)N3CCc4ccccc4C3)ccc2F)cc1`, the Potency is reported as active: 25.1 µM.
With `Cc1ccc(C(=O)Nc2nnc(S(=O)(=O)Nc3ccccc3C)s2)cc1C` the Potency was inconclusive: 89.1 µM [inhibitor, single point].
In the case of `O=C(NCCN1CCCC1)c1cc(-c2ccncc2)nc2ccc(S(=O)(=O)N3CCOCC3)cc12`, the activity, negative = inhibition is reported as inconclusive: -78.4% [inhibitor].
In the case of `Cc1ccc(NC(=O)CSCC(=O)Nc2ccc(S(=O)(=O)N3CCOCC3)cc2)cc1`, the Potency is reported as inconclusive: 70.8 µM [inhibitor, single point].
With `O=C(CCC(=O)N/N=C/c1ccc(Br)o1)N/N=C/c1ccc(Br)o1` the Potency was inconclusive: 89.1 µM [inhibitor, single point].
With `O=C(c1cc(-c2cccs2)on1)N1CCN(c2ccccc2)CC1` the Potency was inconclusive: 8.91 µM [inhibitor, single point].
For `CC(C)[C@H](NC(N)=O)C(=O)Nc1ccc(F)c(Cl)c1`, the Potency was inconclusive: 89.1 µM [inhibitor, single point].
For `O=C(O)COc1ccc(/C=C/C(=O)c2ccc(C3CCCCC3)cc2)cc1`, the Potency was active: 22.4 µM.
With `CC(C)(C)OC(=O)N1CCC(c2cc(=O)n3[nH]cc(C(=O)NC4CCCC4)c3n2)CC1` the Potency was active: 56.2 µM.
For `COCCN(C(=O)CSc1nnc(C)n1-c1ccccc1)c1c(N)n(Cc2ccccc2)c(=O)[nH]c1=O`, the Potency was inconclusive: 39.8 µM [inhibitor, single point].
`O=C(O)CNS(=O)(=O)c1ccc2c(c1)C(=O)c1cc(S(=O)(=O)NCC(=O)O)ccc1-2` was tested, and the Potency was active: 44.7 µM.
`COc1ccc(CNc2nc(NCc3ccc(OC)cc3)n(C(=O)c3ccccc3[N+](=O)[O-])n2)cc1` was tested, and the Potency was active: 6.31 µM.
With `Cc1cc(C(=O)CCl)c(C)n1CCc1ccc(Cl)cc1` the Potency was inconclusive: 56.2 µM [inhibitor, partial curve, poor fit].
In the case of `COc1ccccc1C(=O)Nc1ccnn1C1CCN(CCCc2ccccc2)CC1`, the “activity, negative = inhibition” value is reported as inactive: 18.1% [at 102 µM].
With `CC(=O)N1CCn2c3c(c4cc(C)ccc42)CCCC31` (stereo unspecified) the activity, negative = inhibition was inactive: -9.96% [at 12.7 µM].
For `OC1CCN(Cc2cccc3ccccc23)CC1`, the Potency was inconclusive: 39.8 µM [inhibitor, single point].
For `CCc1ccc2c(c1)c1nc(C)sc1n2CC`, the Potency was inconclusive: 39.8 µM [inhibitor, partial curve, poor fit].
For `COC(=O)c1ccc([C@H]2Nc3ccc(S(=O)(=O)Nc4ccc(F)cc4)cc3[C@H]3C=CC[C@H]32)cc1`, the Potency was active: 5.62 µM.
`CCCOc1ccc(C(=O)N2CCN(c3ccc(N)cc3Cl)CC2)cc1` was tested, and the Potency was inconclusive: 3.55 µM [inhibitor, single point].
In the case of `O=C(C1CC1)N1CCc2cc(S(=O)(=O)NCCC3=CCCCC3)ccc21`, the Potency is reported as inconclusive: 8.91 µM [inhibitor, single point].
With `Cc1ccc(-n2nnnc2SCC(=O)N2CCc3ccccc3C2)cc1` the Potency was inconclusive: 25.1 µM [inhibitor, single point].
In the case of `COc1ccc(N2C(=O)C3C(c4ccc(C(=O)O)cc4)NC(Cc4ccccc4)(C(=O)O)C3C2=O)c([N+](=O)[O-])c1` (stereo unspecified), the activity, negative = inhibition is reported as inconclusive: -61.5% [inhibitor].
For `O=C(CSc1ccc2nnc(-c3cccnc3)n2n1)N1CCc2ccccc21`, the Potency was inconclusive: 25.1 µM [inhibitor, full curve].
For `O=C(NCc1ccccc1)C1CCCN(S(=O)(=O)c2cccc3nonc23)C1` (stereo unspecified), the Potency was inconclusive: 100 µM [inhibitor, single point].
For `Cc1ccc(OCC(=O)N2CCC(Cc3ccccc3)CC2)c([N+](=O)[O-])n1`, the Potency was active: 10 µM.
`Cc1ccc(NC(=O)CCCCCNS(=O)(=O)c2ccc(C)cc2)cc1` was tested, and the “activity, negative = inhibition” value was inactive: 21.8% [at 102 µM].
`COc1ccccc1N1CCN(c2c(CN3CCCC3)c(=O)oc3ccccc23)CC1` was tested, and the “activity, negative = inhibition” value was inactive: -20.8%.
`COc1ccc(-n2c(SCc3ccc(C#N)cc3)nnc2-c2ccccn2)cc1` was tested, and the Potency was active: 39.8 µM.
For `COc1ccc(Nc2ccc(Cl)cc2)c(C(=O)O)c1`, the Potency was inconclusive: 8.91 µM [inhibitor, full curve].
With `COc1ccccc1-c1noc(CSc2nnc(-c3ccccc3)n2-c2ccc(C)c(C)c2)n1` the Potency was inconclusive: 28.2 µM [inhibitor, partial curve, poor fit].
In the case of `Cc1ccc2[nH]c(=O)c3cc(C(=O)NCc4cccc(Cl)c4)sc3c2c1`, the “activity, negative = inhibition” value is reported as inactive: -2.7%.
For `CCn1c(SCC(=O)N/N=C/c2ccc(C)o2)nnc1-c1ccccc1`, the Potency was inconclusive: 11.2 µM [inhibitor, partial curve, poor fit].
In the case of `O=C(C1CCCN(S(=O)(=O)c2cccc3nonc23)C1)N1CCN(c2cccc(C(F)(F)F)c2)CC1` (stereo unspecified), the Potency is reported as inconclusive: 7.94 µM [inhibitor, full curve].
`CCOC(=O)N1CCN(CCC(=O)c2ccc(Br)cc2)CC1` was tested, and the Potency was active: 3.98 µM.
With `CCOc1ccc(C(=O)c2cn(Cc3cccc(OC)c3)c3cc4c(cc3c2=O)OCO4)cc1` the Potency was inconclusive: 5.01 µM [inhibitor, partial curve, poor fit].
In the case of `c1ccc(COC(CN2CCCCCC2)CN2CCCCCC2)cc1`, the Potency is reported as inconclusive: 39.8 µM [inhibitor, single point].
In the case of `Cc1ccc(S(=O)(=O)N2CCCC2C(=O)Nc2ccc(Br)cc2)cc1` (stereo unspecified), the “activity, negative = inhibition” value is reported as inactive: 16.9%.
In the case of `CCCn1nc(C(=O)OCC(=O)Nc2cccc(OC)c2)c2ccccc2c1=O`, the Potency is reported as inconclusive: 79.4 µM [inhibitor, partial curve, poor fit].
For `CCOC(=O)N1CCN(C(=O)CCCCCn2c(=S)[nH]c3ccsc3c2=O)CC1`, the Potency was active: 17.8 µM.
In the case of `O=C(CSc1ncc(-c2ccc(Cl)cc2)[nH]1)Nc1ccccc1F`, the Potency is reported as active: 10 µM.
`O=C(Cc1ccccc1[N+](=O)[O-])NCCc1ccc(F)cc1` was tested, and the “activity, negative = inhibition” value was inactive: 16.7%.
In the case of `N#C/C(=C\c1sc(N2CCOCC2)nc1-c1ccccc1)C(=O)Nc1cccc2ccccc12`, the “activity, negative = inhibition” value is reported as inactive: 17.3%.
For `CC(C)CC1NC2(C(=O)N(C)c3ccccc32)C2C(=O)N(C(C)C)C(=O)C12` (stereo unspecified), the Potency was inconclusive: 35.5 µM [inhibitor, partial curve, poor fit].
In the case of `O=c1ccc2c(-c3ccccc3S(=O)(=O)O)c3ccc(O)c(O)c3oc-2c1O`, the Potency is reported as inconclusive: 0.224 µM [inhibitor, full curve, poor fit].
In the case of `CC(=O)c1ccc(NC(=O)CSc2nc(-c3ccccc3C)nc3c2c(=O)n(C)c(=O)n3C)cc1`, the Potency is reported as inconclusive: 39.8 µM [inhibitor, single point].
In the case of `COc1ccc(OC)c(NC(=O)C2CCN(S(C)(=O)=O)CC2)c1`, the Potency is reported as inconclusive: 8.91 µM [inhibitor, partial curve, poor fit].
For `COc1ccc(CN(Cc2cccnc2)C(=S)NCCc2ccccc2)cc1OC`, the activity, negative = inhibition was inactive: -28.2% [at 2.33 µM].
